Consider one protein from ChEMBL document CHEMBL3826904, “Ionic liquid-promoted multicomponent synthesis of fused tetrazolo[1,5-a]pyrimidines as α-glucosidase inhibitors” (Bioorg Med Chem Lett, 2016).

Compound in series [1]: COc1ccc(-c2ccnc3nnnn23)cc1
As to the kind of experiment: (§1) Mixed-uncompetitive type inhibition of yeast alpha-glucosidase MAL12 at 25 uM using 4-nitrophenyl-alpha-D-glucopyranoside as substrate assessed as substrate Km preincubated for 30 mins followed by substrate addition measured after 10 mins by Lineweaver-Burk plot analysis (reference value: 0.478 uM). Particulars: Saccharomyces cerevisiae.

Compound in series [2]: Cc1ccc(-c2ccnc3nnnn23)cc1
The description is as §1. As to conditions: Saccharomyces cerevisiae.

B1: Alpha-glucosidase MAL12 (Saccharomyces cerevisiae S288c), P53341 (protein)
chain: MTISDHPETEPKWWKEATIYQIYPASFKDSNNDGWGDLKGITSKLQYIKDLGVDAIWVCPFYDSPQQDMGYDISNYEKVWPTYGTNEDCFELIDKTHKLGMKFITDLVINHCSTEHEWFKESRSSKTNPKRDWFFWRPPKGYDAEGKPIPPNNWKSFFGGSAWTFDETTNEFYLRLFASRQVDLNWENEDCRRAIFESAVGFWLDHGVDGFRIDTAGLYSKRPGLPDSPIFDKTSKLQHPNWGSHNGPRIHEYHQELHRFMKNRVKDGREIMTVGEVAHGSDNALYTSAARYEVSEVFSFTHVEVGTSPFFRYNIVPFTLKQWKEAIASNFLFINGTDSWATTYIENHDQARSITRFADDSPKYRKISGKLLTLLECSLTGTLYVYQGQEIGQINFKEWPIEKYEDVDVKNNYEIIKKSFGKNSKEMKDFFKGIALLSRDHSRTPMPWTKDKPNAGFTGPDVKPWFLLNESFEQGINVEQESRDDDSVLNFWKRALQARKKYKELMIYGYDFQFIDLDSDQIFSFTKEYEDKTLFAALNFSGEEIEFSLPREGASLSFILGNYDDTDVSSRVLKPWEGRIYLVK
In the case of B1, the values for the Km in series [1] and in series [2] were 1.15 µM and 3.76 µM, respectively.
